Test results from the supplement of paper PMC3334620.
Over roughly 33,000 sequences, “E-score (-0.5 to 0.5)” has its median near -0.054; the highest 2% begin near 0.35. Some of the results follow.

What follows are sequences tested against T1, Stb5 (UniProt P38699) (assay: PBM E-score (8-mer binding enrichment) (E-score (-0.5 to 0.5)); higher = stronger / more preferred TF binding; most listed sequences are background and not binding sites). Conditions: protein concentration: 200 nM; construct: GST-full length.
T1 sequence: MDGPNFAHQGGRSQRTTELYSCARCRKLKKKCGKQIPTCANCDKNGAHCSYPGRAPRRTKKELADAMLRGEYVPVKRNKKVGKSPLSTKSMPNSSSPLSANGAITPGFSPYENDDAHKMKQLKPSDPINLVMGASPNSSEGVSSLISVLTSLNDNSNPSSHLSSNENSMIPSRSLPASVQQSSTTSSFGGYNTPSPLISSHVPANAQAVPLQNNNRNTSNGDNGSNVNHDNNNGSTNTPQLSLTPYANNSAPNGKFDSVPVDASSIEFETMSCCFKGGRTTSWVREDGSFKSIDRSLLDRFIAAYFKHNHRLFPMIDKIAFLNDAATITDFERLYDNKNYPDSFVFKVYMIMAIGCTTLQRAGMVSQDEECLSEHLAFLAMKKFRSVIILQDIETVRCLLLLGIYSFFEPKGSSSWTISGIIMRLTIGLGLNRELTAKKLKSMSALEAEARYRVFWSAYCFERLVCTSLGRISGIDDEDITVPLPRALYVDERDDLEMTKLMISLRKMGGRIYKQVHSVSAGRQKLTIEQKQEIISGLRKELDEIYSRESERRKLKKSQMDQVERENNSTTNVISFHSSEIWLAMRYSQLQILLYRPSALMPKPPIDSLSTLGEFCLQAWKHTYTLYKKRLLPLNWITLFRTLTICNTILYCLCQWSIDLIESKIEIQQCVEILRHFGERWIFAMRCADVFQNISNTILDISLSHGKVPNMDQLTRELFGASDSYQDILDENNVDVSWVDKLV
Procedure, shortened: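 Detection of bound protein used fluorescent anti-GST, with scans normalised by masliner. The proteins were GST-tagged yeast transcription factors applied at about 100-200 nM to universal all-10-mer Agilent arrays made double-stranded by primer extension. Each ungapped eight-base word, pooled with its reverse complement, was scored with an E-score from the Universal PBM Analysis Suite.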

Sequence	PBM E-score
AAACGCAG	-0.0173
AGCACTTG	-0.279
GACTGGTA	0.0599
AGTTAAGA	-0.123
CGCTGACC	0.0577
GGCGACCC	0.00378
GACCATAC	0.00487
ACGTTGGC	-0.159
CGTATTGC	0.119
AGCAGAAC	-0.119
CGGGAATA	0.456
CTTGGACC	0.0417
GGGGTTAC	0.397
TATGGTGA	-0.0877
CGATCCCG	0.123
GAGGGGCC	-0.0329
CTCCGCCA	0.293
AATATACT	-0.055
CCTTACAA	0.0129
AGTAGTAG	-0.0272
ACTTGCCC	-0.022
GGGACCAA	0.0158
GCTCAGCC	-0.145
CAAACTAA	0.0135
AAGGATTC	-0.143

Sequence	PBM E-score
GAGGACAA	-0.196
CCCTGACA	-0.0666
CCCCGCGA	0.272
ATAGCCCA	-0.245
TACAACGA	-0.0575
CAATTTGA	-0.103
CGGAGGTC	0.122
ACACGCTG	-0.195
CGAAACCC	0.342
ATAAGCTC	0.0511
ACTTCGCT	-0.0885
CATAGTTA	-0.146
CTGTCGGC	0.35
AGCGTGGC	-0.278
AATCTATG	-0.164
GATTTGAC	0.0761
CCAGCTGC	-0.0589
ATGATCCA	-0.191
ACACCATA	-0.0728
CCCATCTA	-0.0695
ACTACGTA	0.111
AATATTGT	0.0368
GCGTTTGA	-0.00629
AGCATATC	-0.0161
TAACCATA	-0.0918

Sequence	PBM E-score
AATCTAAC	-0.0721
AGCGCTAC	0.0207
CTGCCATA	0.0237
AAAGAGGG	-0.0949
GTAGATGA	-0.128
GGCGAAAC	0.0772
TGGATCCA	-0.224
AATCTTAG	-0.204
AGTGTTAT	-0.1
GATCCCAC	-0.0539
ATTTGCGC	0.0733
GGTTGGCA	-0.0738
CTAAGTCA	-0.215
CATTCGTC	-0.0324
AATTCGCC	0.0741
GCGGGCAA	0.171
ATAGCTGC	-0.0541
CCCAACTA	-0.222
CCCGAGAG	0.0886
CTACGTGA	-0.119
AGCCATCA	-0.244
GACTGAAA	-0.0622
CGAAAACC	0.0959
CGTTAACC	0.0895
AATATTAT	0.198

Sequence	PBM E-score
TCTAGGAA	-0.101
GAGAAAGA	-0.154
CACTACGC	-0.137
ATCCAGGA	-0.231
GAGCAAAA	-0.244
CTCCCTCC	-0.0908
CAACTGCG	0.00196
AACCATAC	0.0519
TGACTACA	-0.146
ACATTCGG	0.142
GAACAGCC	-0.134
CAGGTAGG	-0.138
CACTTGGA	-0.278
ACTAGTAA	-0.246
AGAGTCAC	-0.125
AGGCCCTA	-0.0592
AGATACTA	0.0718
CCACTCCC	-0.0944
ATCTATAC	0.0763
CGGCTTGC	0.102
AACACAGC	-0.0466
GGTTGGGA	-0.192
CATATCGA	0.0156
CAGGCGGC	0.267
CTCAACAC	-0.0325

Sequence	PBM E-score
ACACTTAT	-0.0106
AATCCTCT	-0.302
ACCGTACT	0.122
CACTTCAG	-0.0746
ACCGTTGA	0.233
CTGACCCC	0.078
ACTCCGTC	0.367
GCCCGAAC	0.106
CTCTCGGC	0.2
AAGTGGGA	-0.104
CCTCAACC	-0.221
AGCTAGCC	-0.165
GGAAGGAA	-0.0337
AGTCCCTC	-0.232
ATTCGAGA	-0.253
AAGGTATG	0.0318
ACTTGTGA	-0.262
ACCCACCC	0.167
GGTAGTAC	0.177
GACATCAA	-0.0843
CTCCCGCA	0.233
AACACAAG	-0.22
TGAAAACA	-0.0413
AGAAAGCA	-0.119
ATACAGAG	-0.1

Sequence	PBM E-score
GCCGCAAC	0.237
GGTGCCCA	-0.126
ATCAACGC	-0.202
AGTACGTG	-0.314
AAAATCCC	0.292
GCTGACAA	-0.0373
CTTGCAAC	-0.154
AAGCCTGA	-0.252
GTACTAGA	-0.0975
ACTTACAG	-0.0586
CGCGGTCA	0.21
ACTTAGTA	-0.0263
GAACCTAC	-0.143
ACATCGGG	0.202
CAGTCTCG	-0.182
CTCTACTA	-0.105
ATACAGGG	-0.0237
ATACGCGA	0.0474
CCGATGCA	0.231
AATACGAT	0.117
GTTGGCGA	0.0124
CCGGATCA	0.165
GATAGCGA	-0.0891
CCTGTGCC	-0.148
CTGGTCCA	0.163

Sequence	PBM E-score
ATACCGCA	0.325
CCAGCTAG	-0.234
CTCAGGCA	0.0434
AGAAGAAG	-0.262
ATTGTCTA	-0.12
ATCTGATA	-0.148
GCAATCGC	0.0604
AATGGCTC	-0.272
CGTAGGCA	-0.0569
CTAATTGA	-0.0507
CCACAATA	-0.0735
ATATTAAC	0.0995
ATAACAAC	0.13
GCTCGTTA	-0.0351
CCTAACTC	0.0244
CAAACGTC	-0.0822
CTCTGCCA	-0.235
GCATACCC	0.019
CTCGGACA	0.233
ACACTGAA	-0.205
GCGACAAA	-0.0334
ATCTCAAA	-0.0367
